2 molecules from patent US11407811B2, “Fusion protein, preparation method therefor and use thereof” (JIANGSU RONGTAI BIOTECH CO., LTD., priority 2017, dated 2022) can be followed below.

This series has as its system cervical cancer cell Hela. The experiment in a line: MTT assay, proliferation of cervical cancer cell Hela. The class given is cell-based. As to the method:
The MTT assay was used to detect the inhibitory effect of the integrin blocker fusion protein obtained in Example 1 on the proliferation of various tumor cells, including melanoma cell B16F10, gastric cancer cell MGC-803, lung cancer cell A549, liver cancer cell Hep-G2, breast cancer cell MDA-MB-231, colon cancer cell HCT-116, human glioma U87, and cervical cancer cell Hela.
The tumor cells were cultured in a 5% CO2 incubator at 37° C. to a density of 90% or more, and collected by trypsinization. The cells were resuspended in the culture liquid and counted under a microscope. The cell concentration was adjusted to 3.0×10^4 cells/mL. The cell suspension was inoculated into a 96-well plate at 100 μL per well and cultured overnight in a 5% CO2 incubator at 37° C. […] After the cells were fully adhered, each dilution was added to a 96-well plate at 100 μL per well, respectively. […] 20 μL of 5 mg/mL MTT was added to each well of a 96-well plate, and incubation was continued for 4 hours. The medium was aspirated and 100 μL of DMSO per well were added to dissolve. The absorbance was measured at 570 nm with a microplate reader with a reference wavelength of 630 nm, and the proliferation inhibition (PI) was calculated. The formula is as follows: […]
where Ntest is the OD value of the test group and Ncontrol is the OD value of the blank control group.
The test was repeated 5 times independently. The results obtained from the test were calculated as mean±SD, and statistical t-test was performed. P<0.05 was considered as a significant difference, and P<0.01 was considered as an extremely significant difference.
A general note: Tetrazolium dyes change colour on reduction, which living cells bring about.

B1: Protein I: IgG1-Fc linked to antiangiogenesis polypeptide EDSM-Y via a flexible linker; SEQ ID NO: 15 (protein)
chain: [sequence of human IgG1 Fc not given]GGGGSGGGGSGGGGSFQPVLHLVALNSPLSGGMRGIRGADFQCFQQARAVGLAGTFRAGGGGRGD
For B1, the “A570 nm/A630 nm” value by setting is: (dose 1 μg/mL) 0.7882 ± 0.0412; (dose 2 μg/mL) 0.7454 ± 0.0374; (dose 4 μg/mL) 0.6879 ± 0.0381; (dose 8 μg/mL) 0.6135 ± 0.0362; (dose 16 μg/mL) 0.5365 ± 0.0293; (dose 32 μg/mL) 0.4587 ± 0.0325. In addition, the “A570 nm/A630 nm” value reads like this: (dose 64 μg/mL) 0.3878 ± 0.0287; (dose 128 μg/mL) 0.2655 ± 0.0302; (dose 256 μg/mL) 0.1522 ± 0.0315. Also, the “PI (%)” value (dose 1 μg/mL) came to 1.38%; the “PI (%)” value (dose 2 μg/mL) amounted to 6.73%; the “PI (%)” value (dose 4 μg/mL) was determined as 13.93%; the “PI (%)” value (dose 8 μg/mL) is given as 23.24%; the “PI (%)” value (dose 16 μg/mL) was determined as 32.87%; the “PI (%)” value (dose 32 μg/mL) is listed as 42.61%. Also, the “PI (%)” value runs as follows: (dose 64 μg/mL) 51.48%; (dose 128 μg/mL) 66.78%; (dose 256 μg/mL) 80.96%.

B2: Protein III: mIgG4-Fc linked to antiangiogenesis polypeptide EDSM-Y via a flexible linker; SEQ ID NO: 19 (protein)
chain: [sequence of human IgG4 Fc with S228P F234A L235A (EU numbers) and a few adjoining residues not given]GGGGSGGGGSGGGGSFQPVLHLVALNSPLSGGMRGIRGADFQCFQQARAVGLAGTFRAGGGGRGD
Take B2: the “A570 nm/A630 nm” value is, setting by setting: (dose 1 μg/mL) 0.7806 ± 0.0400; (dose 2 μg/mL) 0.7465 ± 0.0381; (dose 4 μg/mL) 0.6888 ± 0.0374; (dose 8 μg/mL) 0.6254 ± 0.0342; (dose 16 μg/mL) 0.5478 ± 0.0279; (dose 32 μg/mL) 0.4825 ± 0.0263. In addition, the “A570 nm/A630 nm” value reads like this: (dose 64 μg/mL) 0.4121 ± 0.0199; (dose 128 μg/mL) 0.3022 ± 0.0242; (dose 256 μg/mL) 0.1879 ± 0.0228. The “PI (%)” value worked out at 2.33% (dose 1 μg/mL); 6.59% (dose 2 μg/mL); 13.81% (dose 4 μg/mL); 21.75% (dose 8 μg/mL); 31.46% (dose 16 μg/mL); 39.63% (dose 32 μg/mL). The “PI (%)” value runs as follows: (dose 64 μg/mL) 48.44%; (dose 64 μg/mL, listed as protein III) “about 45%”; (dose 128 μg/mL) 62.19%; (dose 256 μg/mL) 76.49%.
